Hit rate of the full screen: of about 46,000 compounds, about 60 (0.1%) were called active. Inconclusive results (about 3%) are left out. The call rests on the fitted dose curve; in most records, active means well fitted inhibition curve with a large enough effect; inconclusive means small, poorly fitted or top-dose-only effect; inactive means no such curve, though single readings can be large or run the other way. The list shows a part of the results.
Test: Primary qHTS assay for Inhibitors of ovarian cancer metastasis using an organotypic tumor microenvironment (TME) model. Further: nearly all actives have a fitted effect of over 65% in size.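 On activity change, negative = inhibition: plate controls were DMSO wells for no effect and tomatine positive control wells for full effect.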
Settings: SKOV3ip1-GFP adhesion/invasion on 3D omental model, fluorescence; series mostly up to 45.8 µM; activity change, negative = inhibition: at the top concentration
How it was run: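 A 3D layer of primary human omental fibroblasts, mesothelial cells, fibronectin and collagen I, grown 48 hr, received SKOV3ip1-GFP cells in serum-free medium plus compounds at 0.36-46 umol/L. After 2 hr RT and 16 hr 37 C, fixed adherent GFP cells were counted; normalized to DMSO and tomatine.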

Compound | activity change, negative = inhibition | outcome
CCc1ccccc1NC(=O)CCCSc1nc(-c2ccco2)cc(C(F)(F)F)n1 | inactive: 8.38% | –
CCCN(C(=O)c1cn(C)c(=O)c2cc(OC)c(OC)cc12)c1ccc(CC)cc1 | inactive: 6.09% | –
CC1=C(C(=O)Nc2ccccc2Cl)C(c2cccc(O)c2)n2ncnc2N1 (centres undefined) | inactive: -2.27% | –
O=C1CC(c2c(Cl)cccc2Cl)c2c(ccc3ccccc23)N1 (centres undefined) | – | inactive
Cc1nn(-c2ccccc2)c(OC(=O)c2ccccc2Br)c1S(=O)(=O)c1ccccc1 | inactive: 8.31% | –
COc1ccccc1CNc1nc2ccc(C)cc2n2nnnc12 | – | inactive
O=C(Nc1ccc(Cl)cc1)C1CCC(CNS(=O)(=O)c2ccc(Br)s2)CC1 (centres undefined) | – | inactive
O=C(CS(=O)(=O)c1cccc2nsnc12)N1CCN(c2ccccc2F)CC1 | inactive: 9.94% | –
Cc1cc(NC(=O)c2ccc3c(c2)N(Cc2cccc(Cl)c2)C(=O)c2ccccc2S3(=O)=O)ccc1Br | inactive: 1.89% | –
COc1ccc(-c2cc(C(F)(F)F)nc(SCCC(=O)Nc3ccc(NC(C)=O)cc3)n2)cc1 | inactive: -6.99% | –
O=C(Nc1ccccc1C(F)(F)F)c1ncoc1-c1ccco1 | inactive: -19.1% | –
CCCCN(C)CCCNC(=O)C1CCN(S(=O)(=O)CCC)CC1 | – | inactive
COc1cc(C2C(=O)N(C3CCCCC3)CC(=O)N2CCc2ccccc2)ccc1OC(C)C (centres undefined) | inactive: 6.92% | –
Cc1oc(-c2cccc(Cl)c2)nc1CN1CCC(C(=O)NC(C)c2ccccc2)CC1 (centres undefined) | inactive: 11.5% | –
CCOc1ccc(CN2C(=O)c3ccccc3Sc3ccc(C(=O)NCc4ccco4)cc32)cc1 | inactive: -19.8% | –
COc1ccc(Cl)cc1NC(=O)CSc1cn(CC(=O)N2CCCCC2)c2ccccc12 | – | inactive
Cc1oc2ncn(C)c(=O)c2c1C(=O)N1CCN(c2cccc(C(F)(F)F)c2)CC1 | inactive: -3.81% | –
COCCNc1nc2c(c(=O)n(C)c(=O)n2C)n1Cc1c(F)cccc1Cl | inactive: 6.46% | –
COc1ccc(CNC(=O)c2cc(Nc3ccccc3C)nc3ccccc23)cc1 | inactive: 8.94% | –
CCN(CC)c1ccc(CNCCCSc2nnnn2C)cc1 | inactive: -2.86% | –
Cc1cccc(NC(=O)CSc2nnc(NC(=O)Nc3ccccc3)s2)c1C | inactive: -5.44% | –
CSc1ccc(C2C(C(=O)Nc3ccccc3)=C(C)Nc3nc4ccccc4n32)cc1 (centres undefined) | inactive: -2.18% | –
CCOc1ccccc1CNC(=O)c1ccc(CS(=O)Cc2cccc(Cl)c2)o1 (centres undefined) | inactive: -5.48% | –
COc1cccc(C2CC(=O)Nc3c2ccc(C)c3C)c1OC (centres undefined) | inactive: -6.72% | –
CCc1ccc(NC(=O)NCCc2c(C)nn(C)c2C)cc1 | inactive: -1.71% | –

Compound | activity change, negative = inhibition | outcome
CCc1ccc(NC(=O)CC2C(=O)NCCN2C(=O)c2ccc(F)cc2)cc1 (centres undefined) | – | inactive
COc1cccc(NC(=O)CSc2nnc(-c3cccc(OC)c3)o2)c1 | inactive: 4.21% | –
Cc1ccc(NC(=O)CSc2ncc(-c3ccccc3)[nH]2)cc1 | inactive: -2.61% | –
Cc1ccccc1CNC(=O)C(=O)NCC(c1ccco1)S(=O)(=O)c1cccs1 (centres undefined) | inactive: 4.97% | –
CSc1ccc(CNC(=O)Cn2nc(N3CCN(c4ccccc4)CC3)ccc2=O)cc1 | inactive: 7.11% | –
O=C(Nc1cc2c(cc1C(=O)c1ccccc1Br)OCCO2)c1ccccc1 | – | inactive
Cc1ccc(Cl)cc1N1CCN(C(=O)c2cnn(C)c2C2CCN(C(=O)OC(C)(C)C)CC2)CC1 | inactive: -6.15% | –
Cc1ccc(-c2nnc(Nc3ccccc3O)c3ccccc23)cc1 | inactive: -12.1% | –
CC(=O)c1ccc(NC(=O)COc2ccccc2-c2nc(-c3ccc(C)cc3)no2)cc1 | inactive: -14% | –
O=C(C1CCC(Cn2c(=O)c3sccc3n(Cc3ccccc3)c2=O)CC1)N1CCOCC1 (centres undefined) | inactive: 0.0812% | –
Cc1ccc(OCC(=O)Nc2ccccc2C(=O)OCc2cc(=O)n3ccsc3n2)cc1 | inactive: -22.9% | –
O=C(NC1CC(=O)N(c2cccc(F)c2)C1)c1ccc2c(c1)OCO2 (centres undefined) | inactive: 0.344% | –
CCOC(=O)c1c(C)[nH]c(C)c1S(=O)(=O)N1CCCC(C(=O)Nc2cc(C)ccc2C)C1 (centres undefined) | – | inactive
CCCCNC(=O)CSc1nc2nc(C)c(Cc3c(F)cccc3Cl)c(C)n2n1 | – | inactive
CCC(=O)N1CCc2cc(CNC(=O)c3ccccc3C)ccc21 | inactive: 4.04% | –
CCc1ccc(-n2c(=O)c3sc4ccccc4c3n(CC(=O)N(CC)Cc3ccccc3)c2=O)cc1 | inactive: 7.69% | –
Cc1ccc2sc(-c3ccc(N)cc3)nc2c1 | inactive: 3.73% | –
O=C(Nc1ccc2nc(SCC(=O)N3CCc4ccccc43)sc2c1)c1ccccc1 | inactive: -5.99% | –
O=C(CCC(=O)N1CC2CCCN2c2ccccc21)NCc1ccc(F)cc1 (centres undefined) | – | inactive
Cc1cc(C)c(NC(=O)CN2C(=O)c3cccnc3Sc3ccccc32)c(C)c1 | inactive: 3.73% | –
CCc1cc(C(=O)Nc2c(C)nn(Cc3ccccc3Cl)c2C)no1 | – | inactive
O=C(Nc1ccccc1F)c1ccc(Cn2nc(N3CCN(c4ccccc4)CC3)ccc2=O)o1 | inactive: 4.3% | –
COc1cc(OC)c(NC(=O)N2CCc3c([nH]c4ccccc34)C2c2ccccc2F)cc1Cl (centres undefined) | inactive: 10.6% | –
COc1cc(OC)c(N(C)C(=O)c2c(C)oc3ncnc(N4CCCCC4)c23)cc1Cl | inactive: 0.955% | –
